# Over roughly 33,000 sequences, “E-score (-0.5 to 0.5)” has its median near -0.013; the highest 2% begin near 0.3. This is one part of the list.
# Molecular target: T1, Msn1 (UniProt P22148)
# T1 sequence: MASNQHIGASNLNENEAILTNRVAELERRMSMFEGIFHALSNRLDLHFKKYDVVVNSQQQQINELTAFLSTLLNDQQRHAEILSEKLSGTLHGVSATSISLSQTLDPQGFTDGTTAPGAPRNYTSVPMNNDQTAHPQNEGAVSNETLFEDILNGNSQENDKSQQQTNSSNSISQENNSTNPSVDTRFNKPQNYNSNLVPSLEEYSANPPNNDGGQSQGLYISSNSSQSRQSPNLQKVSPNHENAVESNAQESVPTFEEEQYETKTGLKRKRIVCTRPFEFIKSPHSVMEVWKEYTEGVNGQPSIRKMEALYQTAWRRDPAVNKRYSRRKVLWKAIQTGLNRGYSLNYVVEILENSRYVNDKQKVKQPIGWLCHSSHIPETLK
# Test: PBM E-score (8-mer binding enrichment) (E-score (-0.5 to 0.5)); higher = stronger / more preferred TF binding; most listed sequences are background and not binding sites
# Details: protein concentration: 200 nM; construct: GST-full length
# Outline: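 Each ungapped eight-base word and its reverse complement, pooled, received an E-score from the Universal PBM Analysis Suite. Underlying scans, normalised with masliner, recorded fluorescent anti-GST bound to GST-tagged yeast transcription factors. These were applied at about 100-200 nM to universal all-10-mer Agilent arrays double-stranded by primer extension.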
row,Sequence,PBM E-score
1,AGCCTAAT,-0.00341
2,AATATTAA,0.318
3,GACGTACC,-0.0232
4,ACGCTAGG,-0.203
5,CTTTCGTA,0.0777
6,ATTAAAGG,0.0633
7,AGCTCTTG,-0.0733
8,CCCTTACC,-0.181
9,ACGAACCG,0.0562
10,AGTGCTGA,-0.125
11,ACGGCGGC,-0.162
12,CGGGTACC,-0.07
13,ATCCGTCC,0.175
14,GAAACTTC,-0.0245
15,ATTTCCAC,0.106
16,ACTCTAAA,0.0135
17,CTGAAGTC,-0.0347
18,ATTAAGTC,0.197
19,CATAATCG,0.192
20,CTACCGCA,-0.00604
21,AAGAGGTG,0.04
22,ACTACTAG,0.176
23,AGGTATTA,0.0178
24,GCTTGCCA,-0.131
25,AGCGCGCT,-0.0376

row,Sequence,PBM E-score
1,TCGGCGAA,0.103
2,AGGTGAGG,-0.16
3,GCCCTGCC,-0.296
4,CCCGGCAA,0.051
5,AGAAGTCC,0.164
6,CCGGCCGG,0.124
7,CTGAACGC,-0.138
8,CAATACGC,0.0416
9,GGTGACAA,0.322
10,GCATCACC,-0.217
11,TTCCTAAA,0.0739
12,AGATAATG,0.0408
13,CGTTTGCC,0.107
14,ATGAGGAC,0.145
15,GCCATCGC,-0.234
16,ATTATTAA,0.18
17,CACGCCGG,0.0797
18,TGAAAAAA,0.221
19,ACGCGCGG,-0.0102
20,ACAATCGA,0.159
21,TATACTGA,0.262
22,ACAAAGTG,0.0484
23,CTCATAGA,0.0272
24,CACATGGA,0.0113
25,TGATTCAA,-0.0386

row,Sequence,PBM E-score
1,CAACCGGG,-0.0889
2,ATGAATAC,-0.0655
3,TCGCCCAA,-0.0031
4,TGTGATAA,0.0376
5,AAGTGCAA,0.0957
6,AAACATGG,0.0412
7,ATGCACAA,0.0261
8,AGGGCAGC,-0.185
9,GTTGTAAA,-0.135
10,ATATGATG,0.113
11,TCCTAAGA,0.0389
12,GCTTGATA,0.051
13,ACCAGCGC,-0.136
14,GAATAAAA,0.238
15,CGTCGGTA,-0.164
16,AGTCACCC,-0.015
17,ATATCGGG,0.153
18,AATGAAGT,0.054
19,TCAAATGA,-0.0369
20,ACGTGTAG,-0.134
21,ACCACGTG,0.0353
22,GCATCCCC,-0.145
23,GCATACAA,0.206
24,AACGGGAA,0.118
25,ACGGCGAG,0.0597

row,Sequence,PBM E-score
1,GGACTCTA,-0.214
2,CACACGTA,-0.0851
3,CCGTTGCG,-0.0164
4,GAGAAACA,0.0761
5,CGGAGGGA,0.0529
6,ATCCCTAA,-0.222
7,CGGCCAAC,-0.154
8,GCAGCGGC,-0.176
9,AAAGCCGC,0.00017
10,GAGTGTGA,-0.051
11,ACCGTCCT,-0.0742
12,CCTTGGAG,-0.133
13,AACGATTG,0.0949
14,AAATTGGA,0.205
15,ACCAGGTA,-0.207
16,AGGTAGTG,-0.158
17,ACGGTTAT,-0.0602
18,CAATGAGA,-0.156
19,AGTGGCCG,-0.278
20,CGTGACCC,0.0216
21,GTTTCTTA,0.0545
22,CCCATCGC,-0.249
23,GAATTACA,0.0111
24,GCGGGAAA,-0.0328
25,ATGTCGGA,0.253

row,Sequence,PBM E-score
1,AGATCGAA,0.0194
2,GGCTGAAA,0.00836
3,CTCTCGCC,-0.191
4,TCTAGAGA,-0.17
5,CGTATTAG,0.13
6,AGATAGTC,-0.0911
7,AAAAGGTT,-0.111
8,ATTCATCC,0.0917
9,CAGTGATC,-0.0606
10,CCCTGAGG,-0.159
11,CCATAATA,-0.0421
12,ATCCAGTG,0.0645
13,CCGCGTTA,-0.00964
14,GCCGGACA,0.357
15,ACGTCGGG,-0.101
16,GCGCTCGA,0.0163
17,TAATTCTA,0.193
18,CTCCTGGA,-0.185
19,CTCAGGAA,0.00021
20,GATTAGGA,0.0838
21,CTGAGACA,0.319
22,TTAAGCAA,0.119
23,AGTTTAAG,0.0278
24,AGGAACCT,-0.03
25,ACTCGCTC,0.00656

row,Sequence,PBM E-score
1,ATAGGCAA,-0.12
2,ATGTTATA,-0.0164
3,AGCCCATA,-0.197
4,GACTGTGA,-0.0953
5,CTAGATGC,-0.0777
6,AGGATTCC,-0.0174
7,AGCTCTTA,-0.0201
8,GGCCGCCA,-0.261
9,CCATCTCC,-0.169
10,CGACTCGA,-0.0191
11,AGGCTTAA,0.0111
12,AAATGAAA,0.305
13,CGTCGGAA,0.078
14,ACGAGGGA,-0.0299
15,CGCAAAGC,0.0415
16,CTCCGAAA,0.0712
17,GAGATGGA,-0.137
18,ATCTCCGC,-0.208
19,GGTATGTA,-0.0675
20,CAAGAACA,-0.00332
21,ACCCATCT,-0.0379
22,CCACTTGC,-0.132
23,AGCCCGGC,-0.0865
24,CCCACAGC,-0.00603
25,AAAGTACT,0.0721

row,Sequence,PBM E-score
1,CCAGACCG,-0.145
2,GTAAGAAA,-0.0298
3,CATCCACC,-0.111
4,AACGAGTC,-0.0621
5,AGCCTCGC,-0.179
6,AGCATTGG,-0.227
7,CATAACCA,-0.0131
8,GTGAGTCA,-0.00724
9,ATTAGTGA,0.0344
10,GCGTGGAA,-0.217
11,GTACAAAC,0.421
12,TATGGTAA,0.0198
13,GGCATGTA,0.128
14,ATAATTAG,0.14
15,ACCATGTG,-0.128
16,AAAGCGTC,-0.0789
17,TCCCATCA,-0.124
18,ACTCTACC,-0.0418
19,TGGAAGAA,0.0848
20,ATCATGCC,-0.0337
21,GGTGGTAA,-0.00209
22,AACCCAGG,-0.0759

# From the supplement of paper PMC3334620
